Structures can show the parent of a compound that is named as a salt.

In data set [1] the test system is ceramide content and IL-6 and p21 mRNA. As to the kind of experiment: Acute experiment in mice: methamphetamine alone or in combination with L-CS. The note with it: methamphetamine in combination with L-CS.
Data set [2] has as its system NF-kB subunit p65 at the TNF-α promoter. As to the kind of experiment: Chromatin immunoprecipitation assay in MEF. The settings on record: 1 mM, harvested 24 hrs later.
The subject of data set [3] is ceramide synthases and age-related genes TNF-α, IL-6, p21, p53. As to the kind of experiment: Acute methamphetamine administration in rats: gene expression (RT-PCR).
Data set [4] concerns enzymes of de novo ceramide biosynthesis (SPT, CerS) and age-related genes TNF-α, IL-6, p21, p53. As to the kind of experiment: Methamphetamine self-administration in rats: gene expression (RT-PCR).

On to `N[C@H]1CONC1=O` [L-cycloserine], for which the “methamphetamine-induced increase of IL-6 and p21 mRNA” value in data set [1] is “block the increase”.
For the compound `CN[C@@H](C)Cc1ccccc1` [methamphetamine, S(+)-methylamphetamine HCl], the “recruitment of NF-kB subunit p65 to the TNF-α promoter” value in data set [2] is listed as “recruitment”. In data set [3] (acute methamphetamine treatment), the “transcription of IL-6 and p21” value is given as “increased transcription”. The “expression of mRNA transcripts encoding for ceramide synthases isoforms” value in data set [3] (dorsal striatum, methamphetamine-treated vs saline-treated rats) is “markedly and selectively elevated”. For the same compound, the CerS6 gene expression result in data set [3] (non-contingent methamphetamine administration, data not shown) is reported as “increased”. Moreover, the “transcription of age-related genes TNF-α, IL-6, p21, and p53” value in data set [4] (methamphetamine self-administration) is listed as “elevated levels”. In addition, the “serine palmitoyltransferase (SPT) and ceramide synthase (CerS) gene expression” value in data set [4] (skeletal muscle, self-administering rats) is “increased”.
